T1: BMP9 (human, UniProt Q9UK05 320-429)
T1 construct: also called hBMP-9; hBMP9
T1 sequence (looked up): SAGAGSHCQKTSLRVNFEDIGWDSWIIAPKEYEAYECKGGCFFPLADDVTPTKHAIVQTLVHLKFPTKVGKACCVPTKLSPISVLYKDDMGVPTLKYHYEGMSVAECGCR

T2: BMP7 (human, UniProt P18075 293-431)
T2 construct: also called hBMP-7
T2 sequence (looked up): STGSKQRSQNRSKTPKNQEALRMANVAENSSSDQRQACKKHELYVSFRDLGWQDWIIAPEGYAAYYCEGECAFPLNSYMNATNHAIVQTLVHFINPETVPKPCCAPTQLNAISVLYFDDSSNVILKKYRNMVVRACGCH

T3: TGF-β2 (human, UniProt P61812 303-414)
T3 construct: also called hTGF-β2
T3 sequence (looked up): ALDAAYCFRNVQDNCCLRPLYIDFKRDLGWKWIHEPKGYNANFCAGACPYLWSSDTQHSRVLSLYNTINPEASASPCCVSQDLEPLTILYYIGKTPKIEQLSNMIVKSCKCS

T4: BMP2 (human, UniProt P12643 283-396)
T4 construct: also called hBMP-2
T4 sequence (looked up): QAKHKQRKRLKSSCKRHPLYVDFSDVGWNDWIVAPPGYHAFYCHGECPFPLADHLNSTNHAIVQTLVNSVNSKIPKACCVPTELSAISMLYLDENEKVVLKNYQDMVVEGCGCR

T5: hBMP-2/7 (human, UniProt P12643 283-396; P18075 293-431)
T5 sequence (looked up) 1: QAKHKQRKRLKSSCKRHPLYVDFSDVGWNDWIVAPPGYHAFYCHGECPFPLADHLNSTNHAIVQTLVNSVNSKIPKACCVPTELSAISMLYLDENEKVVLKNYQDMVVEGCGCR
T5 sequence (looked up) 2: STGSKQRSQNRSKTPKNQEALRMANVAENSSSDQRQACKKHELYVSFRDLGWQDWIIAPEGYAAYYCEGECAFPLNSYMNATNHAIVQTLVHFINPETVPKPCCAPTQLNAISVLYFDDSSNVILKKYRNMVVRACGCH

T6: TGF-β3 (human, UniProt P10600 301-412)
T6 construct: also called hTGF-β3
T6 sequence (looked up): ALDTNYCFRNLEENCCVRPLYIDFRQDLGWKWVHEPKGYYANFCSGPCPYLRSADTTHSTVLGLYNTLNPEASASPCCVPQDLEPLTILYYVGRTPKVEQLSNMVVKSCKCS

T7: activin A (human, UniProt P08476 311-426)
T7 construct: also called hActivin A
T7 sequence (looked up): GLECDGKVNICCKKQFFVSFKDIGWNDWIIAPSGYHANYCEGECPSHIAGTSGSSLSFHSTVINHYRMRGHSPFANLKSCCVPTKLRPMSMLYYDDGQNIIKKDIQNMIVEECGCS

T8: BMP10 (human, UniProt O95393 317-424)
T8 construct: also called hBMP-10; hBMP10
T8 sequence: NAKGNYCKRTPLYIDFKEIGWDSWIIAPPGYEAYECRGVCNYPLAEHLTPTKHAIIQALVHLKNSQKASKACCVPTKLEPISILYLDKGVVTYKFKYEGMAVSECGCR

T9: BMP6 (human, UniProt P22004 382-513, limits assumed)
T9 sequence (looked up): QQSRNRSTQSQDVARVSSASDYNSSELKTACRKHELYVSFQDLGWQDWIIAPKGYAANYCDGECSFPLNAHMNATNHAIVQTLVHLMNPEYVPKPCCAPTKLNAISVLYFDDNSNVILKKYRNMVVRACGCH

T10: BMP5 (human, UniProt P22003 317-454, limits assumed)
T10 sequence (looked up): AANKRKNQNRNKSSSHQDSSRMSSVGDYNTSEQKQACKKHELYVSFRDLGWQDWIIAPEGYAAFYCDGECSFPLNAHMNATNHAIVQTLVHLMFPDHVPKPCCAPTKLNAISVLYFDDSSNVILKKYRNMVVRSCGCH


What was measured:
BMP9 [1] = biological target: T1, BMP9; assay: SPR kinetics; CHO-cell-derived protein
BMP7 = biological target: T2, BMP7; assay: SPR (Biacore), captured ENG protein, soluble ligand; '-' = binding undetectable
Text: (§1) Considered a co-receptor, ENG is widely thought to function by facilitating the binding of TGF-β1 and -3 to multi-protein complexes of type I and type II receptors. To investigate the possibility of direct ligand binding by isolated ENG, surface plasmon resonance (SPR) methodology (Biacore™ instrument) was used to screen for binding of captured proteins comprising the full-length extracellular domain of ENG to a variety of soluble human TGF-β family ligands.

TGF-β2 = biological target: T3, TGF-β2; assay: as above
Text: as §1

BMP2 = biological target: T4, BMP2; assay: as above
Text: as §1

hBMP-2/7 = biological target: T5, hBMP-2/7; assay: as above
Text: as §1

TGF-β3 = biological target: T6, TGF-β3; assay: as above
Text: as §1

TGF-β1 = biological target: T11, TGF-β1 (human, UniProt P01137 partial chain); assay: as above
T11 construct: also called hTGF-β1
Text: as §1

activin A = biological target: T7, activin A; assay: as above
Text: as §1

BMP10 [2] = biological target: T8, BMP10; assay: SPR kinetics; CHO-cell-derived protein
BMP10 [3] = biological target: T8, BMP10; assay: SPR (Biacore), ligand amine-coupled to CM5 chip, Fc fusion injected
BMP6 = biological target: T9, BMP6; assay: as above
BMP9 [4] = biological target: T1, BMP9; assay: as above
BMP5 = biological target: T10, BMP5; assay: as above

Sequence of TGF-β1 (P01137 279-390 limits assumed): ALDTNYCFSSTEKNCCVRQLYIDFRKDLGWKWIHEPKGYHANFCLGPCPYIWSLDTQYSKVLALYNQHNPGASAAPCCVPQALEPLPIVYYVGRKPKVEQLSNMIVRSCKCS

Kd (BMP9 [1]) [pM]	koff (BMP9 [1]) [s⁻¹]	binding result (BMP7)	binding result (TGF-β2)	binding result (BMP2)	binding result (hBMP-2/7)	binding result (TGF-β3)	binding result (TGF-β1)	binding result (activin A)	Kd (BMP10 [2]) [pM]	koff (BMP10 [2]) [s⁻¹]	Kd (BMP10 [3]) [pM]	binding result (BMP6)	Kd (BMP9 [4]) [pM]	binding result (BMP5)	Binder
33	0.0025	no binding (tested: 100 nM)	no binding (tested: 100 nM)	no binding (tested: 100 nM)	no binding (tested: 100 nM)	no binding (tested: 100 nM)	no binding (tested: 100 nM)	no binding (tested: 100 nM)	490	0.011					hENG(26-586)-hFc (Fc fusion, also called full-length construct; Full Length) GAETVHCDLQPVGPERDEVTYTTSQVSKGCVAQAPNAILEVHVLFLEFPTGPSQLELTLQASKQNGTWPREVLLVLSVNSSVFLHLQALGIPLHLAYNSSLVTFQEPPGVNTTELPSFPKTQILEWAAERGPITSAAELNDPQSILLRLGQAQGSLSFCMLEASQDMGRTLEWRPRTPALVRGCHLEGVAGHKEAHILRVLPGHSAGPRTVTVKVELSCAPGDLDAVLILQGPPYVSWLIDANHNMQIWTTGEYSFKIFPEKNIRGFKLPDTPQGLLGEARMLNASIVASFVELPLASIVSLHASSCGGRLQTSPAPIQTTPPKDTCSPELLMSLIQTKCADDAMTLVLKKELVAHLKCTITGLTFWDPSCEAEDRGDKFVLRSAYSSCGMQVSASMISNEAVVNILSSSSPQRKKVHCLNMDSLSFQLGLYLSPHFLQASNTIEPGQQSFVQVRVSPSVSEFLLQLDSCHLDLGPEGGTVELIQGRAAKGNCVSLLSPSPEGDPRFSFLLHFYTVPIPKTGTLSCTVALRPKTGSQDQEVHRTVFMRLNIISPDLSGCTSKGTGGG[human IgG1 Fc not shown]
											14.9	no binding	31.4	no binding	ALK1-hFc (Fc fusion, As purified from CHO cells) not shown

— US20200087367A1 (ACCELERON PHARMA, published 2020)
